Experimental data taken from PubChem BioAssay AID651582 (Sanford-Burnham Center for Chemical Genomics, 2012).
This is one part of the list. Further columns of the screen follow, without active or inactive calls. Compounds called inactive in the main read-out are mostly missing here.

assay: TAG lipid buildup reduction in H9c2 cells – cell-based, uHTS, fluorescence, primary screen (AID 651582); details: Nile Red lipid (TAG) fluorescence, measured here:, at 12.5 µM, cells loaded with 200 µM oleic acid

Question: For Cc1cc(C)nc(NC(=NCCc2c[nH]c3ccccc23)NC(=O)Nc2ccc(Cl)c(Cl)c2)n1, which DAPI nuclei signal change (viability), lower = more cytotoxic is on record?
Answer: -23.6%

Question: For Cc1cc(C)cc(CC(=O)N2CCC2(C)C(=O)NS(=O)(=O)c2ccc(Cl)s2)c1 (configuration not stated), which DAPI nuclei signal change (viability), lower = more cytotoxic is on record?
Answer: -25.5%

Question: With N=c1n(Cc2ccc(Cl)cc2)c2ccccc2n1CC(O)COc1ccccc1 (configuration not stated) as the molecule, how does the DAPI nuclei signal change (viability), lower = more cytotoxic read?
Answer: -21.7%

Question: Which DAPI nuclei signal change (viability), lower = more cytotoxic does the source give for CCN1C(=O)[C@H]2[C@@H](c3ccc(-c4cccc(Cl)c4)cc3)N[C@@](Cc3ccccc3)(C(=O)OC)[C@H]2C1=O here?
Answer: -3.78%

Question: With CN1CCCC(n2nc(Cc3ccc(Cl)cc3)c3ccccc3c2=O)CC1 (configuration not stated) as the molecule, how does the DAPI nuclei signal change (viability), lower = more cytotoxic read?
Answer: -46.1%

Question: With CCc1nc2ccc(C(=O)NCc3ccc4c(c3)OCO4)cn2c1N(CCC(C)C)CCN(C)C as the molecule, how does the DAPI nuclei signal change (viability), lower = more cytotoxic read?
Answer: -44.7%

Question: Which DAPI nuclei signal change (viability), lower = more cytotoxic does the source give for C[C@@]12C(=O)Nc3ccc(Br)cc3C(=O)N1[C@H]1c3cc(Cl)ccc3OC[C@@H]1[C@@H]2c1ccccc1 here?
Answer: -15.8%

Question: For COc1ccc(-c2cc(CNc3nc(NC(C)C)nc4cc(-c5ccccc5)sc34)on2)cc1, which DAPI nuclei signal change (viability), lower = more cytotoxic is on record?
Answer: -45.9%

Question: For Cc1cccc2c(C(=O)N3CCN(c4ccccc4)CC3)cc(-c3ccncc3)nc12, which DAPI nuclei signal change (viability), lower = more cytotoxic is on record?
Answer: -25.5%

Question: For CCOc1c(Cl)cc(/C=C/C(=O)N(CC)CC(=O)NCc2cccs2)cc1OC, which DAPI nuclei signal change (viability), lower = more cytotoxic is on record?
Answer: -6.1%

Question: With N#C/C(=C\c1cc([N+](=O)[O-])c(N2CCCCC2)cc1N1CCCCC1)c1nn(-c2ccccc2)c(N)c1C#N as the molecule, how does the DAPI nuclei signal change (viability), lower = more cytotoxic read?
Answer: -13.9%

Question: Which DAPI nuclei signal change (viability), lower = more cytotoxic does the source give for O[C@H]1CN(CC2CCCCC2)[C@@H](c2ccc(Cl)cc2)C[C@@H]1n1cc(-c2ccc(F)cc2)nn1 here?
Answer: 4.35%

Question: With O=Nc1c(-c2c(O)[nH]c3cc(Br)ccc23)[nH]c2ccccc12 as the molecule, how does the DAPI nuclei signal change (viability), lower = more cytotoxic read?
Answer: -45.7%

Question: For COc1ccc(CC(N)c2csc(NC(=O)Nc3ccccc3-c3ccccc3)n2)cc1 (configuration not stated), which DAPI nuclei signal change (viability), lower = more cytotoxic is on record?
Answer: -40.9%

Question: For O=C1CN(C(=O)Cn2ncc(Cl)c(Cl)c2=O)c2ccccc2N1, which DAPI nuclei signal change (viability), lower = more cytotoxic is on record?
Answer: -27.4%

Question: With Cc1cccc(N2CN(S(=O)(=O)c3cccc([N+](=O)[O-])c3)c3nc4ccccc4nc32)c1 as the molecule, how does the DAPI nuclei signal change (viability), lower = more cytotoxic read?
Answer: 3.45%

Question: For Oc1ccc(Nc2nc(N3CCCC3)c3ccccc3n2)cc1, which DAPI nuclei signal change (viability), lower = more cytotoxic is on record?
Answer: -16.5%

Question: With Cc1cc(C)c2c(=N)c3ccccc3n(CCCCCCCCn3c4ccccc4c(=N)c4c(C)cc(C)nc43)c2n1 as the molecule, how does the DAPI nuclei signal change (viability), lower = more cytotoxic read?
Answer: 28.7%

Question: With CN(C)CCCN1c2ccccc2Sc2ccccc21 as the molecule, how does the DAPI nuclei signal change (viability), lower = more cytotoxic read?
Answer: -38%

Question: For Cc1ccc(NC(=O)COC(=O)c2ccc3c(c2)NC(=O)C2CCCN32)cc1 (configuration not stated), which DAPI nuclei signal change (viability), lower = more cytotoxic is on record?
Answer: -6.44%

Question: With CCOc1c(Br)cc(CNC2CCCCCCC2)cc1OC as the molecule, how does the DAPI nuclei signal change (viability), lower = more cytotoxic read?
Answer: -40.6%

Question: With CC(=O)Oc1ccc(S(=O)(=O)c2ccc(OC(C)=O)cc2)cc1 as the molecule, how does the DAPI nuclei signal change (viability), lower = more cytotoxic read?
Answer: -12.9%

Question: For COCCCn1c(SCC(=O)Nc2ccc(NC(=O)c3ccco3)c(OC)c2)nc2ccccc2c1=O, which DAPI nuclei signal change (viability), lower = more cytotoxic is on record?
Answer: -15.7%

Question: For CCOC(=O)[C@H]1[C@H]2COc3ccc(Cl)cc3[C@@H]2N2C(=O)c3cc(OC)ccc3NC(=O)[C@@]12C, which DAPI nuclei signal change (viability), lower = more cytotoxic is on record?
Answer: -11.5%

Question: With O=C1OCC2=C1C(c1ccc(F)cc1)c1cc3c(cc1N2)OCCO3 (configuration not stated) as the molecule, how does the DAPI nuclei signal change (viability), lower = more cytotoxic read?
Answer: -20.4%

Question: For CC1(C(=O)NCc2cccs2)Cc2c(-c3ccc4c(c3)OCO4)ccnc2O1 (configuration not stated), which DAPI nuclei signal change (viability), lower = more cytotoxic is on record?
Answer: -44.1%

Question: Which DAPI nuclei signal change (viability), lower = more cytotoxic does the source give for COc1ccc2[nH]cc(C(=O)CCl)c2c1 here?
Answer: -44.3%

Question: With C#CCN(C[C@H]1[C@H](OC(=O)NCCCCCC)[C@H](OC(=O)NCCCCCC)C[C@@H](C(=O)OC)[C@H]1C(=O)OC)S(=O)(=O)c1ccc(C)cc1 as the molecule, how does the DAPI nuclei signal change (viability), lower = more cytotoxic read?
Answer: -10.5%

Question: Which DAPI nuclei signal change (viability), lower = more cytotoxic does the source give for COc1cccc(-c2cc(C(=O)Nc3ccc(N(C)C(C)=O)cc3)c3cc(Br)ccc3n2)c1 here?
Answer: -3.4%

Question: Which DAPI nuclei signal change (viability), lower = more cytotoxic does the source give for CCOc1cc(CNc2ccc3c(c2)OCCO3)cc(Br)c1OCC here?
Answer: -15.5%

Question: For Cc1cccc2sc(NC(=O)C3CCCN(S(=O)(=O)c4cccc5nonc45)C3)nc12 (configuration not stated), which DAPI nuclei signal change (viability), lower = more cytotoxic is on record?
Answer: 6.61%

Question: For COC(=O)c1c(NC(=S)NN2CCN(C)CC2)sc2c1CCC(C)C2 (configuration not stated), which DAPI nuclei signal change (viability), lower = more cytotoxic is on record?
Answer: -12.7%

Question: With CC1(C)CC(=O)C2=C(C1)Oc1nc3ccccc3cc1C2C(C#N)C#N (configuration not stated) as the molecule, how does the DAPI nuclei signal change (viability), lower = more cytotoxic read?
Answer: -41.8%

Question: For Cc1[nH]c2ccccc2c1/C=N/Nc1nc2ccccc2[nH]1, which DAPI nuclei signal change (viability), lower = more cytotoxic is on record?
Answer: -17.7%

Question: For O=C(CC1C[C@H](C(=O)N2CCCCC2)[C@@]2(CCc3ccccc3)c3[nH]c4ccccc4c3CCN2C1=O)NCc1cccc(C(F)(F)F)c1 (some centres not stated), which DAPI nuclei signal change (viability), lower = more cytotoxic is on record?
Answer: -20.7%

Question: Which DAPI nuclei signal change (viability), lower = more cytotoxic does the source give for Cc1nc2nc(C)n(CCN3CCOCC3)c(=O)c2c(-c2cccc([N+](=O)[O-])c2)c1C(=O)CCCCCCCCCCN1CCC(c2ccccc2)(c2ccccc2)CC1 here?
Answer: -48.7%

Question: With Cn1cc(CN2CCC(C(=O)NC(c3ccc(F)cc3)c3ccc4ccccc4n3)CC2)c2ccccc21 (configuration not stated) as the molecule, how does the DAPI nuclei signal change (viability), lower = more cytotoxic read?
Answer: -32.7%

Question: For COc1cc2nc(NCCCN3CCN(C)CC3)n3nc(-c4ccccc4)nc3c2cc1OC, which DAPI nuclei signal change (viability), lower = more cytotoxic is on record?
Answer: 86.9%

Question: For Cn1c2ccccc2c2c(C(=O)N3CCN(C(=O)c4ccco4)CC3)cn(C3CCCCC3)c(=O)c21, which DAPI nuclei signal change (viability), lower = more cytotoxic is on record?
Answer: -15.1%

Question: With COc1cccc(/C=N/NC(=O)c2cnccn2)c1O as the molecule, how does the DAPI nuclei signal change (viability), lower = more cytotoxic read?
Answer: -14.5%

Question: For CCOC(=O)c1[nH]c(C)c(C(=O)N2CCc3ccccc32)c1C, which DAPI nuclei signal change (viability), lower = more cytotoxic is on record?
Answer: -30.9%

Question: With Brc1ccc(C2=Nn3c(nnc3-c3n[nH]c4c3CCC4)SC2)cc1 as the molecule, how does the DAPI nuclei signal change (viability), lower = more cytotoxic read?
Answer: -29.9%

Question: For CCOC(=O)c1c2c(n(-c3ccc(OC)cc3)c1C)C(=O)C(=O)c1ccccc1-2, which DAPI nuclei signal change (viability), lower = more cytotoxic is on record?
Answer: -43.7%

Question: For CCCCOc1ccccc1NC(=O)Cn1c(-c2nonc2N)nc2ccccc21, which DAPI nuclei signal change (viability), lower = more cytotoxic is on record?
Answer: -18.6%

Question: Which DAPI nuclei signal change (viability), lower = more cytotoxic does the source give for CCOc1cc(CNCCc2ccc(S(N)(=O)=O)cc2)ccc1OCc1ccc(Cl)cc1 here?
Answer: -7.63%

Question: With CCc1nnc(NC(=O)c2cc3c(s2)CCCCC3)s1 as the molecule, how does the DAPI nuclei signal change (viability), lower = more cytotoxic read?
Answer: -5.94%

Question: Which DAPI nuclei signal change (viability), lower = more cytotoxic does the source give for CCOc1ccc2nc(NC(=O)Cc3cccs3)sc2c1 here?
Answer: -13.6%

Question: For Oc1ccc(C[C@H]2CNC(=S)N2CC2CCCN2C[C@H](Cc2ccc(O)cc2)N2C[C@H](Cc3ccc(O)cc3)N(CC3CCCCCC3)C2=S)cc1 (some centres not stated), which DAPI nuclei signal change (viability), lower = more cytotoxic is on record?
Answer: 8.48%

Question: Which DAPI nuclei signal change (viability), lower = more cytotoxic does the source give for C=C1c2nc3ccccc3n2C=C(c2ccc(C)cc2)N1c1ccccc1 here?
Answer: -7.32%

Question: Which DAPI nuclei signal change (viability), lower = more cytotoxic does the source give for O=C1C(NS(=O)(=O)c2cccs2)=C(N2CCN(c3cccc(C(F)(F)F)c3)CC2)C(=O)c2ccccc21 here?
Answer: -16.4%

Question: For NC(Cc1ccc(C(F)(F)F)cc1)c1csc(Nc2ccc(C(=O)NCCCO)cn2)n1 (configuration not stated), which DAPI nuclei signal change (viability), lower = more cytotoxic is on record?
Answer: -0.771%

Question: With O=C1C=CC(=O)c2c(O)c(N3CCN(CCO)CC3)c(Cl)c(O)c21 as the molecule, how does the DAPI nuclei signal change (viability), lower = more cytotoxic read?
Answer: -43%

Question: For Cc1cccc(OCc2n(CC(=O)OC3CC(C)CCC3C(C)C)c3ccccc3[n+]2C)c1 (configuration not stated), which DAPI nuclei signal change (viability), lower = more cytotoxic is on record?
Answer: -36.1%

Question: Which DAPI nuclei signal change (viability), lower = more cytotoxic does the source give for COc1cc(C2=NOC(C(=O)NCc3cccs3)C2)cc(OC)c1OC (configuration not stated) here?
Answer: -22.5%

Question: For CCN1C(N(C)CCc2c[nH]c3ccccc23)=N[C@@H](c2cccc(C(F)(F)F)c2)C(C(=O)OC)=C1C, which DAPI nuclei signal change (viability), lower = more cytotoxic is on record?
Answer: -47.6%

Question: For CCOCCC(=O)Nc1ccc2c(c1)c(=O)n(C)n2C/C=C/c1ccccc1, which DAPI nuclei signal change (viability), lower = more cytotoxic is on record?
Answer: -29.1%

Question: For CCCCc1ccc(N=N/C(C(=O)Nc2cc(OC)c(NC(C)=O)cc2OC)=C(/C)O)cc1, which DAPI nuclei signal change (viability), lower = more cytotoxic is on record?
Answer: 12.9%
